The other results are listed elsewhere or left out.
Experiments:
HSkMC = human skeletal muscle cells; assay: cytotoxicity call (relative viability < 0.9); details: 10 µM
HepG2 = assay: cytotoxicity call (relative viability < 0.9); details: 10 µM
S. aureus RN4220 = assay: growth inhibition call (relative growth <= 0.2); details: 50 µM

SMILES | cytotoxicity call (HSkMC) | cytotoxicity call (HepG2) | growth inhibition call (S. aureus RN4220)
C[C@@H]1CN([C@@H](C)CO)C(=O)c2cc(NC(=O)Cc3ccccc3)ccc2O[C@H]1CN(C)C(=O)Nc1cccc2ccccc12 | inactive | inactive | inactive
CC(C)CC#Cc1ccc2c(c1)O[C@@H](CN(C)C(=O)C1CCOCC1)[C@H](C)CN([C@H](C)CO)S2(=O)=O | inactive | inactive | inactive
COC1C=COC2(C)Oc3c(C)c(O)c4c(O)c(c5c(nc6cc(C)ccn65)c4c3C2=O)NC(=O)C(C)=CC=CC(C)C(O)C(C)C(O)C(C)C(OC(C)=O)C1C (stereo not drawn) | inactive | inactive | active
Cc1ccc(S(=O)(=O)Nc2ccc3c(c2)C(=O)N([C@@H](C)CO)C[C@@H](C)[C@@H](CN(C)S(C)(=O)=O)OCCCC[C@@H](C)O3)cc1 | inactive | inactive | inactive
COCCNC(=O)C[C@@H]1CC[C@@H]2[C@H](COC[C@H](O)CN2C(=O)Nc2ccccc2OC)O1 | inactive | inactive | inactive
NC(=O)[C@H]1CCCCN1 | inactive | inactive | inactive
CNC[C@H]1OCCCC[C@H](C)Oc2ccc(NC(=O)Nc3cccc4ccccc34)cc2C(=O)N([C@@H](C)CO)C[C@@H]1C | inactive | inactive | inactive
O=C(C[C@H]1CC[C@H]2[C@@H](COC[C@@H](O)CN2C(=O)Nc2cccc(Cl)c2)O1)NCc1ccccc1F | inactive | inactive | inactive
Cc1noc(C)c1S(=O)(=O)Nc1ccc2c(c1)C(=O)N([C@@H](C)CO)C[C@@H](C)[C@@H](CN(C)Cc1ccc(Cl)c(Cl)c1)OCCCC[C@@H](C)O2 | inactive | inactive | inactive
Cc1n[nH]c(=O)nc1NC1CC1 | inactive | inactive | inactive
Cc1ccc(S(=O)(=O)N(C)C[C@@H]2Oc3ccc(NS(=O)(=O)c4ccccc4)cc3C(=O)N([C@@H](C)CO)C[C@H]2C)cc1 | inactive | inactive | inactive
C[C@@H]1CCCCO[C@H](CN(C)Cc2ccc(C(F)(F)F)cc2)[C@@H](C)CN([C@@H](C)CO)C(=O)c2cc(NC(=O)Cc3ccccc3)ccc2O1 | inactive | inactive | inactive
C[C@@H]1CCCCO[C@H](CN(C)Cc2ccc(C(=O)O)cc2)[C@H](C)CN([C@@H](C)CO)C(=O)c2cc(NC(=O)Cc3ccccc3)ccc2O1 | inactive | inactive | inactive
C[C@@H]1COCC(=O)N1 | inactive | inactive | inactive
O=C(NC1CCC1)[C@@H]1[C@@H](CO)[C@@H]2Cn3c(cccc3=O)[C@@H]2N1CC1CCOCC1 | inactive | inactive | inactive
C[C@@H]1CCCCO[C@@H](CN(C)Cc2ccc(Cl)c(Cl)c2)[C@@H](C)CN([C@H](C)CO)C(=O)c2cc(NS(=O)(=O)c3ccccc3)ccc2O1 | inactive | active | inactive
Cl.Cl.OCCOCCN1CCN(C(c2ccccc2)c2ccc(Cl)cc2)CC1 (stereo not drawn) | inactive | inactive | inactive
COc1ccc(CNC(=O)N(C)C[C@H]2OCc3ccccc3-c3c(n(C)c4ccccc34)C(=O)N([C@@H](C)CO)C[C@H]2C)cc1 | inactive | inactive | inactive
CO/N=[N+](\[O-])NC(C)C | inactive | inactive | inactive
C=CCOC(=O)[C@H]1[C@@H]2C(=O)O[C@@H](c3ccccc3)[C@@H](c3ccccc3)N2[C@@H](c2ccc(OCCOC(=O)[C@H]3C[C@H]4C(=O)N5CCC[C@H]5C(=O)N4[C@H]3c3cccc(OCCO)c3)cc2)[C@]12C(=O)Nc1ccc(I)cc12 | inactive | inactive | inactive
COc1ccc(CN(C)C[C@@H]2Oc3ccc(NS(C)(=O)=O)cc3C(=O)N([C@H](C)CO)C[C@@H]2C)cc1 | inactive | inactive | inactive
CNC[C@@H]1Oc2ccc(NC(=O)Cn3cnnn3)cc2C(=O)N([C@@H](C)CO)C[C@@H]1C | inactive | inactive | inactive
CO[C@@]12[C@@H]3N[C@@H]3CN1C1=C(C(=O)C(N)=C(C)C1=O)[C@@H]2COC(N)=O | active | active | active
C[C@H]1CN([C@@H](C)CO)S(=O)(=O)c2ccc(C#CC3CCCCC3)cc2O[C@H]1CN(C)C(=O)Cc1ccncc1 | inactive | inactive | inactive
C[C@@H]1CN([C@H](C)CO)C(=O)CCCn2nncc2CO[C@@H]1CN(C)S(=O)(=O)c1ccc(-n2cccn2)cc1 | inactive | inactive | inactive
CNC(=O)C(=O)NC[C@H](c1ccc2c(c1)OCO2)N1CCOCC1 | inactive | inactive | inactive
